About 14,000 (4.5%) of roughly 310,000 compounds showed an effect of 50% or more. The effect is printed as a negative number. The list shows a part of the results.
Molecular target: human ether-à-go-go-related gene (hERG) potassium channel (human, UniProt Q12809)
Experiment: primary screen, population patch clamp on CHO cells stably expressing hERG
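Further: peak tail current of the secondary pulse compared with the same well before compound.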

human ether-à-go-go-related gene (hERG) potassium channel, sequence (Q12809 whole entry, looked up): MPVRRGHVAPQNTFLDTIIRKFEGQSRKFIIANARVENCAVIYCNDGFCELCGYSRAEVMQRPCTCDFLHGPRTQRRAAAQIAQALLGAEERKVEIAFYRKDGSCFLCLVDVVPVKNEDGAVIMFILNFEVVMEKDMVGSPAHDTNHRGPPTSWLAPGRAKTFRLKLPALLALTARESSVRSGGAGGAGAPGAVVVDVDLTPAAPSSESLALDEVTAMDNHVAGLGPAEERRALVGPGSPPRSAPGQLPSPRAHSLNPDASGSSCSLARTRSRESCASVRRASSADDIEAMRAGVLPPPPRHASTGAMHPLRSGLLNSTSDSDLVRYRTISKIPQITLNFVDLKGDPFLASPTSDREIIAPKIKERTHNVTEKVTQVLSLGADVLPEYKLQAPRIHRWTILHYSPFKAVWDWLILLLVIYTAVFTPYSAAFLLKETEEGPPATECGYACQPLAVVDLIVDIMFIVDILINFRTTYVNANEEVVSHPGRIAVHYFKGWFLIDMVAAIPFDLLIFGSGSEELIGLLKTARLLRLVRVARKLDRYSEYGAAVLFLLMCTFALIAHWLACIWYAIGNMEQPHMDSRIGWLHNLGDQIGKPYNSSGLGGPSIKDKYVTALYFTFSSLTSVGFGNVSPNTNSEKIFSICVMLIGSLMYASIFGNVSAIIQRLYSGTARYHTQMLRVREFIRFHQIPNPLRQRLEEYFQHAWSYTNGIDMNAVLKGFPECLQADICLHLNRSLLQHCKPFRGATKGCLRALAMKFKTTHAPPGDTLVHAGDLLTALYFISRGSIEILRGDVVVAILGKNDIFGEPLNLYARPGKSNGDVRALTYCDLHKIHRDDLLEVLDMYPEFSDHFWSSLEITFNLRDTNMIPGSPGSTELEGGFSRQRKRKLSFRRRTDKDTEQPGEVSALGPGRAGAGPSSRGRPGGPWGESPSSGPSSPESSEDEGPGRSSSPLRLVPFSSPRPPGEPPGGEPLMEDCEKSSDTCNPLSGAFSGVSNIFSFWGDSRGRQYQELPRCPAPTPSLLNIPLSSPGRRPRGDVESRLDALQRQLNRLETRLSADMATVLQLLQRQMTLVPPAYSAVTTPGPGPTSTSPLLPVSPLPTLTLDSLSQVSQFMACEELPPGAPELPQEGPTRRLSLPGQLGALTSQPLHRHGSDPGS

Compound	hERG current change (%, negative = inhibition) at 10uM [%]
Cc1ccc(NC(=O)c2sc(Cl)nc2-c2ccccc2)cc1C	3.94
O=C1CCCc2c1nn(-c1ccccc1)[n+]2[O-]	-8.91
CCNC(=S)Nn1cnc2ccccc21	-4.7
COC(=O)c1ccc(NC(=O)Nc2ccc3c(c2)nc(C)n3C)cc1	-10.3
COc1ccc(C2C=C(c3ccc(Br)cc3)Nc3nc(N4C(=O)CCC4=O)nn32)cc1 (stereo not drawn)	-26.5
COc1ccc(-c2csc(NC(=O)c3cc(=O)c4ccccc4o3)n2)cc1OC	4.58
Cc1ccc(C(=O)N(CN2CCCC2=O)c2ccccc2)cc1	-1.3
Cc1c(C(=O)N2CCCCC2)sc(NC(=O)c2ccco2)c1C#N	10.2
O=C(CN1C(=O)CS/C1=C\c1nc(-c2ccc(Cl)cc2)cs1)Nc1cccnc1Cl	24.3
O=C1CSC(c2ccccc2[N+](=O)[O-])N1c1ccc(O)cc1 (stereo not drawn)	8.38
COC(=O)c1ccc(CNC(=O)CCc2c[nH]c3ccccc23)cc1	4.48
Cc1ccccc1C(=O)NC(=S)NCC1CCCO1 (stereo not drawn)	12
Cc1ccc(NC(=O)N2CCc3ccccc3C2)cc1	1.58
CCCc1[nH]nc2c1C(c1ccc(O)cc1OCC)C(C#N)=C(N)O2 (stereo not drawn)	4.53
COc1ccccc1CNC(=O)CN1CCN(S(=O)(=O)c2cccs2)CC1	35.6
O=C(CSc1nc2ccccc2o1)N/N=C/c1ccc(C(=O)O)cc1	30.4
CC(=O)NCC(=O)OCC(=O)c1ccccc1	1.61
COc1ccc([C@@H]2CC=C(C(=O)O)CN2S(=O)(=O)c2ccc(Cl)cc2)cc1	7.54
COCCN(C(=O)c1ccccc1F)c1nc(-c2ccc(OC)cc2)cs1	16.7
O=C(COc1ccc2oc(-c3ccco3)cc(=O)c2c1)N1CCCCC1	-14.6
CCN(CC)S(=O)(=O)c1cccc(NC(=O)CCNC(=O)NC23CC4CC(CC(C4)C2)C3)c1	1.99
C=CCn1c(SCc2c(C)noc2C)nc2ccccc2c1=O	-36.7
CC1(C)CC(=O)C(C=Nc2ccc(Cl)cn2)=C(O)C1	11.6

Compound	hERG current change (%, negative = inhibition) at 10uM [%]
CC(C)(C)OC(=O)NCc1n[nH]c(=S)n1C1CC1	14.5
CC(=O)NCCC(=O)Nc1nc(-c2cccs2)c(-c2cccs2)s1	-6.66
COc1ccc(S(=O)(=O)NCc2ccccn2)cc1NC(=O)c1ccc(C)cc1	-16.5
O=C(CCC(=O)N1CCSc2ccccc21)NCc1ccc(Cl)cc1	-33.8
COc1ccc2c(c1OC)CN1CCc3cc4c(cc3[C@@H]1[C@@H]2O)OCO4	0.379
COC(=O)N1CCCc2cc(C)ccc21	9.64
O=C(NCc1ccccc1)C1Nc2ccc(OC(F)(F)F)cc2C2C=CCC12 (stereo not drawn)	3.1
COCc1ccc(CN2CCC(N3CCC(C(=O)N4CCCC4)CC3)CC2)o1	8.86
COc1ccc(NC(=O)c2cc(S(=O)(=O)N3CCc4ccccc43)cn2C)cc1OC	-5.54
COc1ccc(NC(=O)CCC(=O)c2ccc(Cl)cc2)cn1	-14.9
CCOC(=O)Cn1c(S(=O)(=O)Cc2cccc(F)c2)nc(-c2ccccc2)c1-c1ccccc1	-7.05
Cc1cc(C)nc(SCc2nnc(SCC(=O)Nc3nccs3)n2Cc2ccco2)n1	-25
Oc1ccc(Br)cc1C=Nc1ccc2c3c(cccc13)CC2	4.05
O=C(NCCSc1ccc(Cl)cc1)c1ccc(CN2CCOCC2)cc1	-58.5
COc1cc(S(=O)(=O)N(Cc2ccccc2)CC2CCCO2)ccc1-n1cnnn1 (stereo not drawn)	-23.2
NS(=O)(=O)c1ccc(NC(=O)c2c(Cl)cccc2Cl)cc1	9.38
COc1ccc(Cl)cc1NC(=S)N(Cc1ccccc1C)CC1CCC(C(=O)O)CC1 (stereo not drawn)	38.1
Nc1nnc(CCC2CCCCC2)s1	15.9
O=C(COc1cc(F)ccc1[N+](=O)[O-])Nc1cccc(S(=O)(=O)NC2=NCCC2)c1	14.1
COc1ccc(CNC(=O)c2coc(=O)c3ccccc23)c(OC)c1	8.38
Cc1c2cnn(CC(=O)NCCN3CCOCC3)c(=O)c2c(C)n1Cc1ccccc1	-4.24
O=C(O)C(=O)O.O=[N+]([O-])c1ccc(S(=O)(=O)N2CCN(Cc3c[nH]c4ccccc34)CC2)cc1	-54.5

Source: publication PMC4336329 (PLoS ONE, 2015)
